According to PubChem BioAssay AID1347165 (National Center for Advancing Translational Sciences (NCATS), 2019):
Hit rate of the full screen: of about 220,000 compounds, about 5,700 (2.6%) were called active. The shares of active, inactive and inconclusive entries below differ from those in the screen. Calls follow the shape of the dose curve; as a rule, active = well fitted inhibition curve with a large enough effect; inconclusive = small, poorly fitted or top-dose-only effect; inactive = no such curve, though single readings can be large or run the other way. Where the call is inconclusive, the potency comes from a doubtful curve fit.

Target: Lysine-specific demethylase 5B (Homo sapiens) (UniProt Q9UGL1)
Chain of UniProt Q9UGL1 (Q9UGL1 whole entry, looked up): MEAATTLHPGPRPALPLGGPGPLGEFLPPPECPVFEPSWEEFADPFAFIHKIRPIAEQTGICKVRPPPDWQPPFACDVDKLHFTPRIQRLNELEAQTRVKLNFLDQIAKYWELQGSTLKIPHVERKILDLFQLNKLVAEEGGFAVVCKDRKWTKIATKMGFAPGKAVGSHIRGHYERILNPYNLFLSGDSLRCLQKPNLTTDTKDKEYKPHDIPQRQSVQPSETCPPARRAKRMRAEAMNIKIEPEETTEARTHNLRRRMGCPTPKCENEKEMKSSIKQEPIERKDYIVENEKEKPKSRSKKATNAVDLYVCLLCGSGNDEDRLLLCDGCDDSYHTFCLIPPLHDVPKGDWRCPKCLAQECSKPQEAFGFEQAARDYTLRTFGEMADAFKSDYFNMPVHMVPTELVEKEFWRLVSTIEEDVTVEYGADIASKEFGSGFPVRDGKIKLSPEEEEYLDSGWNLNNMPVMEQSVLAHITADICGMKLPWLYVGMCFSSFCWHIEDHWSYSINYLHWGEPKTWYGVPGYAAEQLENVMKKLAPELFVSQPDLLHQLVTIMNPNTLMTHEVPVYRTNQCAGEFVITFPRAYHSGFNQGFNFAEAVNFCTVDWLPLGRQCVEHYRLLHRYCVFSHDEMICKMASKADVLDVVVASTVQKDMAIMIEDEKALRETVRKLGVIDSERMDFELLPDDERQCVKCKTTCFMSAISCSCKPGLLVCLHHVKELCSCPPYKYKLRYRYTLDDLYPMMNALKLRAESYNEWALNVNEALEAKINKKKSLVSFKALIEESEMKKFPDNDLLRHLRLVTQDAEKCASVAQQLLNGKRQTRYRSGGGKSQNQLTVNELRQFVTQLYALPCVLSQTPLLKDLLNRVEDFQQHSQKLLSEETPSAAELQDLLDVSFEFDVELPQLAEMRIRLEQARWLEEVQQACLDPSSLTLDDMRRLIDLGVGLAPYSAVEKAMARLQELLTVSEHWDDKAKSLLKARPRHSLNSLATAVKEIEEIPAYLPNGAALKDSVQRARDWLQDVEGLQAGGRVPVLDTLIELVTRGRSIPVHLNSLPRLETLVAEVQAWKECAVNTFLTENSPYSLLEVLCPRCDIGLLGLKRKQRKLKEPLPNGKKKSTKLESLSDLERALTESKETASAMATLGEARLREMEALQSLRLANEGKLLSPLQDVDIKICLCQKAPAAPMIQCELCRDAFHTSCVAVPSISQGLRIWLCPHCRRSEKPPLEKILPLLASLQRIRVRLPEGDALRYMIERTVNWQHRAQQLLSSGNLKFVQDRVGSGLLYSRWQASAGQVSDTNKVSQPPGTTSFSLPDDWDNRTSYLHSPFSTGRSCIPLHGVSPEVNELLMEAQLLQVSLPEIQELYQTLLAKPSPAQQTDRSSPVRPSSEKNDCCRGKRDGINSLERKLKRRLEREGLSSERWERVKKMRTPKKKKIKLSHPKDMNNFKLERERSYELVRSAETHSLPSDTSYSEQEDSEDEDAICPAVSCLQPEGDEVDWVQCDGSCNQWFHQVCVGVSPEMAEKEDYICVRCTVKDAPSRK
Test: Primary screen for KDM5B Histone Demethylases FDH-coupled qHTS; also: nearly all actives have a fitted effect of over 70% in size; as to activity change, negative = inhibition: 0% is about no effect
Conditions: FDH-coupled NADH fluorescence (FDH is formaldehyde dehydrogenase); activity change, negative = inhibition: at 57.7 µM (top of the series) unless noted
Summary of the method: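 Compound dilutions met 200 nM (final) KDM5BΔAP for 10 min at room temperature before substrate addition. The substrate mix held 12.5 µM H3K4me3 with cofactors 25 µM α-ketoglutarate and 50 µM Fe²⁺. NADH signal gain over 30 min defined activity.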
Potency is read from the fitted curve at half-maximal effect; tags tell the direction and shape of the fitted curve.

SMILES	Potency	activity change, negative = inhibition
Cc1cn2nc(-c3nc(C4CCCN(C(=O)c5sccc5C)C4)no3)cc2c(=O)[nH]1 (stereo not given)	active: 25.1 µM	
CN(Cc1ccco1)C(=O)c1cn[nH]c1-c1ccc(Cl)cc1		inactive: 4.26%
COc1ccc(CNC(=O)COC(=O)c2ccc(OC)c(S(=O)(=O)N3CCCCCC3)c2)cc1		inactive: 14.8%
O=C1c2c(nc(CNc3ccc(F)cc3)n2Cc2ccccc2)NCCN1Cc1ccccc1	inconclusive: 11.2 µM [inhibitor, partial curve]	
CN(Cc1ccncc1)C1CCOc2ccccc21 (stereo not given)	inconclusive: 12.6 µM [inhibitor, partial curve, poor fit]	
Cc1ccc(-c2ccc(=O)n(Cc3ccc(F)cc3)n2)cc1	inconclusive: 35.5 µM [inhibitor, single point]	
CCC(C)(C)C1CCc2c(sc(NC(=O)CCl)c2C#N)C1 (stereo not given)		inactive: -10.5%
O=S(=O)(c1ccc(-c2csc(Nc3ccc(F)cc3)n2)cc1)N1CCCCC1	inconclusive: 14.1 µM [inhibitor, partial curve, poor fit]	
COc1ccccc1CN1Cc2cc(NC(=O)c3ccc(OC)c(OC)c3)ccc2OC(C)C1=O (stereo not given)	inconclusive: 35.5 µM [inhibitor, single point]	
Cc1cc(NC2CCCCC2)c2ccccc2n1		inactive: 18.1%
CCCCc1cc(=O)oc2cc(OCC(=O)O)ccc12	inconclusive: 22.4 µM [inhibitor, partial curve, poor fit]	
O=C(c1ccc(C(F)(F)F)cc1)N1CCC2(C1)C(=NC1CCCC1)NC(=O)N2c1cc(F)cc(F)c1 (stereo not given)		inactive: 8.66% [at 115 µM]
CC(=O)Nc1sc(C)c(C)c1C(=O)OCC(=O)Nc1cc(S(C)(=O)=O)ccc1Cl	inconclusive: 28.2 µM [inhibitor, single point]	
C/C=C/c1c(C)nc2sc(C#N)c(N)c2c1C	inconclusive: 28.2 µM [inhibitor, partial curve, poor fit]	
CCc1nc2c(c(-c3ccc(Cl)cc3)n1)CN(C(=O)C1CC1)CC2	inconclusive: 35.5 µM [inhibitor, partial curve]	
O=C(COc1cccc(-n2cnnn2)c1)Nc1ccc(S(=O)(=O)N2CCOCC2)cc1		inactive: 1.49%
COc1ccc(-c2[nH]nc3ncc(-c4cccnc4OC)nc23)c(C)c1	active: 35.5 µM	
O=C(c1ccoc1)N1CCC(Nc2cccn3ncnc23)CC1	active: 12.6 µM	
Cc1cccc(C(=O)Nc2ccc(C3(C(=O)NCCC(C)C)CCCCC3)cc2)c1		inactive: 0.0215%
CCO[C@H]1CN(c2cc(C)nc(-c3ccccc3O)n2)C[C@@H]1O	inconclusive: 28.2 µM [inhibitor, single point]	
O=C(COc1ccccc1F)Nc1c(C(=O)c2ccc3c(c2)OCCO3)oc2ccccc12		inactive: 16.2%
COc1ccc(CC(=O)N2Cc3ccccc3CC23CCCN(C(=O)CN)C3)cc1 (stereo not given)	inconclusive: 44.7 µM [inhibitor, partial curve]	
CCC(CC)C(=O)Nc1cc(-c2cn3cccnc3n2)ccc1OC	inconclusive: 2.82 µM [inhibitor, full curve, poor fit]	
CN(C)CCCNc1oc(/C=C/c2cccs2)nc1C#N	inconclusive: 20 µM [inhibitor, partial curve, poor fit]	

SMILES	Potency	activity change, negative = inhibition
O=C(c1cc(-c2ccc(Cl)s2)nc2ccccc12)N1CCOCC1		inactive: -666%
O=C(c1ccccc1F)N1CCC(n2cc(-c3nc(-c4ccccc4)no3)nn2)C1 (stereo not given)		inactive: -10.6%
COc1ccc(Cn2c(CO)cnc2SCC(=O)NCc2ccc(F)cc2)cc1		inactive: 2.68%
O=S(=O)(Nc1cccc(Cl)c1)c1ccc2[nH]c3c(c2c1)CCCCCC3	inconclusive: 11.2 µM [inhibitor, partial curve, poor fit]	
CCOc1ccccc1CN1CCC2(CCN(C(=O)c3ccccc3)CC2)Oc2ccccc21	inconclusive: 17.8 µM [inhibitor, partial curve]	
CCCN1CCN(C(=O)c2c(C)oc3c2CN(Cc2ccc(C)cc2)CC3)CC1	inconclusive: 20 µM [inhibitor, partial curve]	
O=C(Nc1ccccc1)c1ccc(N2CC3CCC(C2)N3CC(F)(F)F)nn1		inactive: -11.8% [at 115 µM]
Cc1ccc(NC(=O)c2cc(NC(=O)C3CC3)cc3nc(C)ccc23)cc1	inconclusive: 22.4 µM [inhibitor, partial curve, poor fit]	
O=C1Nc2ccc(-c3cccc(C(F)(F)F)c3)cc2C(=O)N2CCN(C(=O)c3cccnc3)C[C@H]12	inconclusive: 25.1 µM [inhibitor, partial curve, poor fit]	
COc1cc2c(cc1OC)-c1c(c(C(=O)Nc3cccnc3)nn1-c1ccccc1)C2	inconclusive: 31.6 µM [inhibitor, partial curve, poor fit]	
Fc1ccc(COc2ccc3ccccc3c2CNCc2cccnc2)cc1		inactive: 3.11%
CC(C)CCNC(=O)Cn1ccn2nc(-c3ccccc3)c(CO)c2c1=O	inconclusive: 25.1 µM [inhibitor, partial curve]	
COCCN1Cc2nc(NCc3ccccc3)ccc2OCC1=O	active: 35.5 µM	
Cc1cccc(N2CCN(CC(=O)NC(=O)NCC(F)(F)F)CC2)c1C		inactive: 14.2%
COc1ccc(-c2cc3ccc(OS(=O)(=O)c4ccc(C)cc4)cc3oc2=O)cc1OC		inactive: 8.94%
CCOc1ccc(/C=C(\C#N)C(=O)c2ccc(C)cc2)cc1OC		inactive: -5.22%
Cc1c(C(=O)C(=O)N(Cc2ccccc2)C(C)C)c2ccccc2n1C		inactive: -11.5%
CCNC(=O)COC(=O)c1cc(-c2ccc(F)cc2)nc2ccccc12	inconclusive: 25.1 µM [inhibitor, partial curve, poor fit]	
O=C(COc1ccc(Cl)cc1)OCc1cc(=O)n2nc(-c3cccs3)sc2n1	inconclusive: 3.16 µM [inhibitor, full curve, poor fit]	
N#Cc1nc(-c2ccco2)oc1N1CCN(C(=O)CCCN2C(=O)NC3(CCCC3)C2=O)CC1	inconclusive: 25.1 µM [inhibitor, partial curve, poor fit]	
COc1cccc(Oc2c(C)oc3cc(OCc4ccc(F)cc4)ccc3c2=O)c1		inactive: 6.47%
CCCCC(=O)Nc1c(S(=O)(=O)c2ccccc2)c(C)c(C)n1CCOC		inactive: 11.6%
COCCN1Cc2[nH]nc(-c3ccc(OC)c(OC)c3)c2CC1=O	inconclusive: 10 µM [inhibitor, partial curve, poor fit]	
COC(=O)C1C(=O)CC(C)(O)C(C(=O)OC)C1c1ccc(F)cc1 (stereo not given)		inactive: 23.8%

SMILES	Potency	activity change, negative = inhibition
CCc1ccccc1NC(=O)CN1C=C(C(=O)OC)C(C)=NS1(=O)=O		inactive: 13.2%
CCc1cccc(C)c1NC(=O)CC1Oc2ccc(C)cc2NC1=O (stereo not given)		inconclusive: -30.9% [inhibitor]
CCc1ccc(N2CC(c3noc(-c4ccc5c(c4)OCO5)n3)CC2=O)cc1 (stereo not given)	active: 31.6 µM	
COc1ccc(C(=O)CC(=O)C(=O)Nc2ccc(C)c(C)c2)cc1	inconclusive: 22.4 µM [inhibitor, single point]	
Cc1noc(C)c1CCC(=O)N1CCOC(Cc2cccc(F)c2)C1 (stereo not given)		inactive: 20%
Cc1ccc(CNC(=O)CCc2c(C)nc3c(c(C)nn3-c3ccccc3)c2C)cc1	inconclusive: 1.41 µM [inhibitor, full curve, poor fit]	
CCNC(=O)N[C@@H]1C=C[C@@H](c2c(C)nn(-c3ccccc3[N+](=O)[O-])c2C)C1	inconclusive: 44.7 µM [inhibitor, single point]	
O=Cc1ccc(OCc2ccccc2Cl)cc1	inconclusive: 22.4 µM [inhibitor, partial curve, poor fit]	
C=CCNS(=O)(=O)c1ccc(C(=O)OCc2cc(=O)oc3cc(OC)ccc23)cc1	inconclusive: 10 µM [inhibitor, partial curve, poor fit]	
CCOC(=O)c1cc(-c2ccccc2)n(-c2cccc(C(=O)Nc3cccc(F)c3)c2)c1C	inconclusive: 25.1 µM [inhibitor, single point]	
COc1ccc(-c2cc(N3CCCC(NC(=O)c4ccc(Br)o4)C3)n[nH]2)cc1 (stereo not given)		inactive: -26.8%
O=C(Cn1ccn2nc(-c3ccccc3)c(CO)c2c1=O)Nc1ccc(F)cc1F	inconclusive: 31.6 µM [inhibitor, single point]	
CCCCNc1nc(-c2cccc(OC)c2O)nc2ccccc12		inactive: 4.7%
CCc1ccccc1-n1nc(-c2c(C)nc3scc(CC(=O)NCc4ccccc4)n3c2=O)cc1C	inconclusive: 28.2 µM [inhibitor, partial curve, poor fit]	
CCOC(=O)C1CCCN(C(=O)Cn2cccc2-c2nc(-c3ccc(C)cc3)no2)C1 (stereo not given)		inactive: -18.4%
COc1ccc(C(=O)Nc2nnc(S(=O)(=O)N3CCCCCC3)s2)cc1OC	inconclusive: 17.8 µM [inhibitor, partial curve, poor fit]	
COc1ccc(CNC(=O)N2CCCCC2c2nc(-c3cnccn3)n[nH]2)cc1 (stereo not given)	inconclusive: 28.2 µM [inhibitor, partial curve, poor fit]	
Cc1ccc(C=Nc2ccc(N=Cc3ccc(C)s3)cc2)s1	inconclusive: 8.91 µM [inhibitor, partial curve, poor fit]	
CC(C)CCC(=O)N1CCN(c2nc3c(s2)CN(C)CC3)CC1	inconclusive: 22.4 µM [inhibitor, single point]	
O=C(NCCNc1cccnc1)C1CCC(=O)N(CCc2ccc(Cl)cc2)C1 (stereo not given)	inconclusive: 22.4 µM [inhibitor, single point]	
CCOc1ccccc1NC(=O)c1c(NC(=O)COc2ccccc2)sc2c1CCCCC2		inactive: -16.7%
CC1=C[C@@H](CN(C)CCN(C)C)[C@H](C(C)C)C[C@H]1Cc1nnc(-c2ccccc2)o1		inactive: -13.9% [at 86.2 µM]
